{"source": "PubChem BioAssay AID485294", "about": "(National Center for Advancing Translational Sciences (NCATS), 2010)", "note": "Hit rate of the full screen: of about 370,000 compounds, about 150 (0.041%) were called active. The inconclusive results got no clear call from the source; some entries with a clear call stand among them for comparison. The call rests on the fitted dose curve; in most records, active means well fitted inhibition curve with a large enough effect; inconclusive means small, poorly fitted or top-dose-only effect; inactive means flat fitted curve, though single readings scatter. Potencies of inconclusive entries are left out as doubtful fits. Potency means the concentration at half of the fitted maximal effect; tags describe the fitted curve by direction and shape.", "data": [{"biological_target": "Beta-lactamase (Escherichia coli (strain K12)) (UniProt P00811)", "sequence (P00811 whole entry, looked up)": "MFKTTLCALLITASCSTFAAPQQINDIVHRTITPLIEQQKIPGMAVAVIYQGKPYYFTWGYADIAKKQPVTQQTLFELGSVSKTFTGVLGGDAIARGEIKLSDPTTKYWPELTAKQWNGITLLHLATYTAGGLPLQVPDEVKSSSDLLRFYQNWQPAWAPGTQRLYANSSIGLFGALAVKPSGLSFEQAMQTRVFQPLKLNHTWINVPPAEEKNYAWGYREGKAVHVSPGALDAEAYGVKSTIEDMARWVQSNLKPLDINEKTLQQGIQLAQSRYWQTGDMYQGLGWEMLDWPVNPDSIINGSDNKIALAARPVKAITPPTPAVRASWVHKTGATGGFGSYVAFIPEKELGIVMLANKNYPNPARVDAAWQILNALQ", "assay": "qHTS Inhibitors of AmpC Beta-Lactamase (assay with detergent); further: nearly all actives have a fitted effect of over 25% in size", "settings": "AmpC hydrolysis of nitrocefin, absorbance 480 nm, 0.01% Triton; series mostly up to 114 µM", "procedure,_shortened": "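20 mM phosphate pH 7.0 + 0.01% (detergent screen) or 0.0001% Triton X-100; 5.3 nM AmpC reagent; cpd preinc 15 min RT; nitrocefin (800 uM stock) to start; A480 q20 s × 4 min; Activity was normalised to no-enzyme and no-compound control wells.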", "values": [{"compound": "CCOC(=O)N1CCN(C(=O)CCc2c(C)nc3c(c(C)nn3-c3ccc(C)c(C)c3)c2C)CC1", "Potency": "inactive"}, {"compound": "Cc1ccc(S(=O)(=O)Nc2cc(=O)[nH]c(SCC(=O)Nc3cccc(C(F)(F)F)c3)n2)cc1", "Potency": "inconclusive [inhibitor, full curve, poor fit]"}, {"compound": "Cc1cc2c(cc1C)CN(c1ccccc1)C2", "Potency": "inactive"}, {"compound": "O=C(Cc1ccccc1)N1CCN(Cc2ccc(F)cc2)CC1", "Potency": "inconclusive [inhibitor, full curve, poor fit]"}, {"compound": "CCCNC(=O)c1ccc2c(c1)ncn2-c1cc(C)cc(C)c1", "Potency": "inconclusive [inhibitor, single point]"}, {"compound": "COc1ccc(C2CC(c3ccc(OC)cc3)n3nc(N)nc3N2)cc1", "note": "(centres undefined)", "Potency": "inconclusive [inhibitor, full curve]"}, {"compound": "COc1ccc2c(c1)-c1c(sn(-c3ccccc3)c1=S)C(C)(C)N2", "Potency": "inactive"}, {"compound": "COc1ccc(OC)c([C@@H]2Nc3ccc(C(=O)O)cc3[C@@H]3C=CC[C@@H]32)c1", "Potency": "inactive"}, {"compound": "COc1ccc(/C=C2\\SC(=S)N(CCC(=O)NCCCn3ccnc3)C2=O)cc1", "Potency": "inactive"}, {"compound": "Cc1ccc(NCCNc2ccc(C)cc2)cc1", "Potency": "inconclusive [inhibitor, partial curve, poor fit]"}, {"compound": "Cc1cc(C)nc(N2CCC(C(=O)Nc3ccc4c(c3)OCO4)CC2)n1", "Potency": "inconclusive [inhibitor, partial curve, poor fit]"}, {"compound": "Cc1ccc(-c2cc(C(F)(F)F)n3ncc(C(=O)O)c3n2)cc1", "Potency": "inconclusive [inhibitor, full curve, poor fit]"}, {"compound": "CCOC(=O)c1oc2ccccc2c1CN1CCN(C(=O)c2ccccc2)CC1", "Potency": "inconclusive [inhibitor, full curve, poor fit]"}, {"compound": "CCOC(=O)CSc1ccc(S(=O)(=O)N(CC)CC)cc1[N+](=O)[O-]", "Potency": "inconclusive [inhibitor, full curve, poor fit]"}, {"compound": "CSc1nnc(NC(=O)c2cc(=O)c3cc(C)c(C)cc3o2)s1", "Potency": "inactive"}, {"compound": "CCc1cccc(NC(=O)c2cc3c(=O)oc4ccc(C)cc4c3s2)c1", "Potency": "inactive"}, {"compound": "Cc1c(Br)c(=O)oc2c(C)c(O)ccc12", "Potency": "inconclusive [inhibitor, partial curve]"}, {"compound": "CCCNS(=O)(=O)c1ccc(OCC(=O)NCc2ccco2)cc1", "Potency": "inconclusive [inhibitor, full curve, poor fit]"}, {"compound": "CCOC(=O)C(NCc1ccco1)(NC(=O)c1ccccc1)C(F)(F)F", "note": "(centres undefined)", "Potency": "inconclusive [inhibitor, partial curve, poor fit]"}, {"compound": "Oc1ccccc1C1=NCCNC(C(F)(F)C(F)F)=C1", "Potency": "inconclusive [inhibitor, full curve, poor fit]"}, {"compound": "COc1ccc(C#Cc2c(C=O)n(C)c3ccccc23)cc1", "Potency": "inactive"}, {"compound": "CCOc1ccc(N(CC(=O)NC2CCCCCC2)S(=O)(=O)c2c(C)[nH]c(=O)[nH]c2=O)cc1", "Potency": "inconclusive [inhibitor, full curve]"}, {"compound": "Clc1cccc(NCc2cn3cccnc3n2)c1", "Potency": "inactive"}, {"compound": "CCOC(=O)COc1ccc(S(=O)(=O)Nc2cccc(SC)c2)cc1", "Potency": "inconclusive [inhibitor, full curve, poor fit]"}, {"compound": "COc1ccc(NC(=O)c2c(C)noc2-c2snnc2C)cc1", "Potency": "inactive"}, {"compound": "Cc1cccc(NCc2ccccc2O)n1", "Potency": "inactive"}, {"compound": "CCCn1nc2cc(C(=O)NCc3ccccc3OC)ccc2c1OCC", "Potency": "inconclusive [inhibitor, full curve, poor fit]"}, {"compound": "CC(C)NC(=O)CSc1cn(CC(=O)N2CCCCCC2)c2ccccc12", "Potency": "inactive"}, {"compound": "Cc1ccnc(NC(=O)c2cc([N+](=O)[O-])cc([N+](=O)[O-])c2)c1", "Potency": "inconclusive [inhibitor, full curve, poor fit]"}, {"compound": "COc1ccc(-c2c(C)nn(-c3ccccc3)c2NC(C)=O)cc1OC", "Potency": "inconclusive [inhibitor, full curve]"}, {"compound": "COc1ccc(C(C(=O)NC2CCCC2)N(C(=O)c2ccco2)c2ccc(OC)c(OC)c2)cc1", "note": "(centres undefined)", "Potency": "inconclusive [inhibitor, single point]"}, {"compound": "O=C(NC12CC3CC(CC(C3)C1)C2)c1c(Cl)cccc1Cl", "Potency": "inconclusive [inhibitor, full curve, poor fit]"}, {"compound": "c1csc(C2=NNC(=NC3CCCCC3)SC2)c1", "Potency": "inactive"}, {"compound": "O=S(=O)(NCC1CCCO1)c1ccc2oc3ccc(S(=O)(=O)NCC4CCCO4)cc3c2c1", "note": "(centres undefined)", "Potency": "inconclusive [inhibitor, full curve, poor fit]"}, {"compound": "CCc1cc(CNC(=O)CC2C(=O)NCCN2Cc2ccc(-c3ccccc3)cc2)on1", "note": "(centres undefined)", "Potency": "inconclusive [inhibitor, full curve, poor fit]"}, {"compound": "CCOC(=O)c1cc(C)n(CC2CCC(C(=O)Nc3cccc(C(C)=O)c3)CC2)c1C", "note": "(centres undefined)", "Potency": "inactive"}, {"compound": "CC(C)(C)c1ccc(S(=O)(=O)NCC(=O)N2CCN(C(=O)c3ccco3)CC2)cc1", "Potency": "inconclusive [inhibitor, full curve, poor fit]"}, {"compound": "O=C(O)COc1ccc(/C=C/c2nc(-c3ccccc3O)n[nH]2)cc1", "Potency": "inactive"}, {"compound": "CCc1ccc(S(=O)(=O)Nc2c(C)nc3nc[nH]n3c2=O)cc1", "Potency": "inconclusive [inhibitor, full curve, poor fit]"}, {"compound": "CCOc1ccc(CNc2cc(C)nc3nc(-c4cccc(C)c4)nn23)cc1OC", "Potency": "inactive"}, {"compound": "Cc1nc2sc(C(c3ccccc3)N3CCOCC3)c(O)n2n1", "note": "(centres undefined)", "Potency": "inconclusive [inhibitor, full curve, poor fit]"}, {"compound": "COc1ccc(OC)c(C2C(C#N)=C(N)Oc3cc(C)n(Cc4ccccn4)c(=O)c32)c1", "note": "(centres undefined)", "Potency": "inconclusive [inhibitor, full curve, poor fit]"}, {"compound": "CNC(=O)CN(c1ccc2c(c1)OCCO2)S(C)(=O)=O", "Potency": "inconclusive [inhibitor, partial curve]"}, {"compound": "COc1ccc(N(C(=O)CNC(=O)c2cccs2)C(C(=O)NCC2CCCO2)c2ccccc2)c(OC)c1", "note": "(centres undefined)", "Potency": "inconclusive [inhibitor, single point]"}]}]}
